According to PubChem BioAssay AID588382 (National Center for Advancing Translational Sciences (NCATS), 2011):
Screen size: about 1,300 compounds; about 150 (12%) were called active. Roughly 30% stayed inconclusive and do not appear here. Calls come from the whole dose curve; as a rule, active = well fitted cell-killing curve with a large enough effect; inconclusive = small, poorly fitted or top-dose-only effect, or effect the other way; inactive = flat fitted curve, though single readings scatter. The entries are a selection whose mix differs from that of the whole data set.

Test: qHTS of small molecules that selectively kill Giardia lamblia: Hit Validation in HepG2 cytotox;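 note: compound exposure lasted overnight at 37 deg C; nearly all actives have a fitted effect of over 55% in size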;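 for activity change, negative = cytotoxicity: viability measured as cellular ATP by ATPLite luminescence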
Details: cell viability; Potency: HepG2 cytotoxicity; series mostly up to 38.3 µM; activity change, negative = cytotoxicity: at the top concentration
Excerpt: Giardia lamblia is a human pathogen afflicting impoverished nations, and the most common cause of outbreaks of diarrhea in the United States. Giardia has been classified by the CDC as a category B bioterrorism organism. The favored anti giardiasis drugs in the US are metronidazole or tinidazole, compounds that have undesirable side effects. Moreover, increasing resistance to drug regimes and recurrence are a concern. It is thus clear that alternative drug treatments are needed.
In a collaboration between the University of Maryland, College Park and the NIH Chemical Genomics Center, a bioluminescence Giardia viability assay based on the trophozoites' ATP content was developed. This assay is suitable for high throughput screening, and miniaturized the assay for compound screening in 1536-well plates. The goal of the project is to screen the Molecular Libraries Small Molecule Repository (MLSMR) for compounds that selectively kill Giardia trophozoites. This counterscreen looks at the toxicity of the compounds against the human HepG2 cell line.
NIH Chemical Genomics Center [NCGC]
NIH Molecular Libraries Probe Centers Network [MLPCN]
Assay Submitter (PI): Osnat Herzberg, University of Maryland, College Park, MD.
4 uL of HepG2 cells ae dispensed into white 1536-well plates. They are incubated overnight at 37 deg C and then 23 nL of compounds are transferred to the wells with a pintool. Plates are incubated overnight at 37 deg C. 2 uL of ATPLite is added and the plates are incubated for 15 min at room temperature before they are read on the ViewLux for luminiescence.
% is set by controls: 0 for no effect and ±100 for the full control effect; potency is the fitted concentration of half-maximal effect.

Compound	activity change, negative = cytotoxicity	Potency
CC(=O)N(/N=C/c1ccc([N+](=O)[O-])o1)c1nc2ccccc2c(=O)n1-c1ccccc1	inactive: -17.4%	
FC(F)(F)c1ccc2c(c1)N1CCCC1CN2 (stereo not drawn)	inactive: 0.308%	
C[C@@H]1CN([C@H](C)CO)C(=O)c2cc(NC(=O)Nc3ccc4c(c3)OCO4)ccc2O[C@H]1CN(C)Cc1ccncc1	inactive: 8.98%	
C[C@@H]1CC=C[C@H]2[C@H]1C(=O)N(Cc1ccccc1)[C@H]2c1ccc2ccccc2c1/C=C/c1ccccc1	inactive: 6.21%	
O=C(Oc1cccc2c(O)cccc12)c1ccccc1Cl	inactive: 20.5%	
CCN(CC)CC(=O)Nc1c(C)cccc1C	inactive: 14.7%	
Cc1c(NC2(C#N)CCCC2)c(=O)n(-c2ccccc2)n1C	inactive: 3.27%	
COc1cc2c3c(c1OC)C1(C=CC(=NNC(N)=O)C=C1)CC3N(C(C)=O)CC2 (stereo not drawn)	inactive: -0.0508%	
Cc1ccc(S(=O)(=O)CC(=O)Nc2ncc([N+](=O)[O-])s2)cc1	inactive: 1.79%	
COc1ccc(CC(=O)NCC(=O)Nc2ccccc2Br)cc1	inactive: 21.4%	
NC(=O)C1CCN(c2cc(Cl)ccc2[N+](=O)[O-])CC1	inactive: 15.7%	
CC(C)CC(=O)NC(=S)NNC(=O)c1cccc([N+](=O)[O-])c1	inactive: -27.5%	
Cn1c(=O)c(=O)n(C)c2cc([N+](=O)[O-])c(N3CCOCC3)cc21	inactive: -8.79%	
OC(COc1cccc2ccccc12)CN1CCN(c2ccc(Cl)cc2)CC1 (stereo not drawn)	inactive: -21.8%	
Cn1c(CNC(=O)c2ccccc2F)cc2ccccc21	inactive: 0.748%	
O=C(O)C1CCCN1S(=O)(=O)c1ccc(Br)cc1 (stereo not drawn)	inactive: 23.3%	
CCC(=O)N1CCN(c2ccc(NC(=O)c3ccc([N+](=O)[O-])o3)cc2Cl)CC1		active: 3.69 µM
CCN1C[C@@H]2[C@@H]3C(=O)N(Cc4ccccc4)C(=O)[C@@H]3[C@](C)(C1=O)N2C(=O)c1ccccc1	inactive: 0.487%	
Cc1cc(NC(=O)c2ccc([N+](=O)[O-])o2)ccc1NC(=O)c1ccco1		active: 2.93 µM
C#CCCOC(=O)Nc1ccccc1	inactive: 19.7%	
Cc1cc([N+](=O)[O-])nn1Cc1noc(C(=O)NCc2ccc3c(c2)OCO3)n1	inactive: 17.5%	
COc1ccc(-c2nc3c(=O)n(C)c(=O)nc-3n(C)n2)cc1		active: 1.85 µM
O=c1c2ccccc2nc(/C=C/c2ccc([N+](=O)[O-])o2)n1CCCO		active: 3.69 µM
O=C(O)c1cc2ccccc2c(N=Nc2cccnc2)c1O	inactive: 17.4%	
CCCC/C=C/C(NC(=O)c1ccc(C(=O)OC)cc1)c1ccccc1 (stereo not drawn)	inactive: 13%	

Compound	activity change, negative = cytotoxicity	Potency
O=C1CSC(c2ccc(F)cc2)N1c1c(F)cccc1F (stereo not drawn)	inactive: 5.7%	
O=[N+]([O-])c1cn(-c2nc(-c3ccco3)cc(C(F)(F)F)n2)cn1	inactive: 2.48%	
CCNc1nc(NCC)nc(-n2nc(C)cc2C)n1	inactive: 13.7%	
COc1ccc2oc(=Nc3ccccc3)c(-c3nc4ccccc4[nH]3)cc2c1		active: 7.36 µM
COc1ccccc1C(=O)C1CCCN(C(=O)c2ccco2)C1 (stereo not drawn)	inactive: 5.82%	
COc1ccc(NS(=O)(=O)c2ccc3oc4ccccc4c3c2)cn1	inactive: 2.07%	
COc1cccc(CSc2nc3ccncc3[nH]2)c1		active: 4.65 µM
Cc1cccc(NC(=O)N2CCN(Cc3ccc4c(c3)OCO4)CC2)c1C	inactive: 9.98%	
CN1C2=CC=CC=CC2=[N+](C)C12C([N+](=O)[O-])=CC(=[N+]([O-])[O-])C=C2[N+](=O)[O-] (stereo not drawn)	inactive: 21%	
CC1CCN(S(=O)(=O)c2cn(C)c(=O)n(C)c2=O)CC1	inactive: 15.2%	
O=C(Nc1ccc(N2CCCCC2)cc1)c1ccc([N+](=O)[O-])o1		active: 13.1 µM
COc1ccccc1S(=O)(=O)Cc1ccc(C(=O)NCC(OC)OC)o1	inactive: 19.4%	
CC(=O)Nc1ccc(S(=O)(=O)NCCC(=O)N2CCN(c3ccccc3Cl)CC2)cc1	inactive: 2.36%	
CN(C)S(=O)(=O)c1cccc(C(=O)NCCNC(=O)c2cccc(S(=O)(=O)N(C)C)c2)c1	inactive: 23.1%	
CCCCOc1ccc(C(=O)NCC(=O)NCCCn2nc(C)cc2C)cc1	inactive: 8.77%	
CN(C)c1nc(=Nc2cccc(Cl)c2)ss1	inactive: 19.8%	
Cc1cc(C)cc(N=c2c([N+](=O)[O-])nn(-c3cccc(Cl)c3)n2O)c1	inactive: 17.1%	
COc1cc(-c2noc(C)c2C(=O)NCC[C@@H]2CCCN2C)cc(OC)c1OC	inactive: 12.6%	
CN(C)C(=O)CCc1ccc2c3c([nH]c2c1)[C@]1(CCC2CCCC2)[C@@H](C(=O)N2CCOCC2)C[C@H](CC(=O)NCCN2CCOCC2)C(=O)N1CC3	inactive: -10.8%	
CC1(C)N=c2ccc([N+](=O)[O-])c(N)c2=[N+]1[O-]	inactive: 3.92%	
C=Cc1ccc(CN2CCCN(Cc3ccc(F)cc3)S2(=O)=O)cc1	inactive: 0.795%	
COc1ccccc1C(=O)NC(=O)OCCn1c(C)cnc1[N+](=O)[O-]	inactive: 13.5%	
CCCc1nc2c(=O)n(C)c(=O)nc-2n(C)n1		active: 8.26 µM
O=C(COc1cccnc1[N+](=O)[O-])NCc1cccs1	inactive: 7.57%	
Cc1ccc(C(CC(=O)O)NC(=O)c2ccc(S(=O)(=O)N3CC(C)OC(C)C3)cc2)cc1 (stereo not drawn)	inactive: 16%	

Compound	activity change, negative = cytotoxicity	Potency
Cc1c[nH]c(=O)c([N+](=O)[O-])c1	inactive: 10.6%	
C=CCOC(=O)C1=C(C)NC(=O)NC1c1ccc(O)cc1 (stereo not drawn)	inactive: 13.7%	
COc1ccc(-n2c(C)cc(C(=O)COc3ccc(C)nc3[N+](=O)[O-])c2C)cc1	inactive: 0.437%	
COC(=O)[C@]1(Cc2ccccc2)N[C@H](CN(C)C(=O)c2ccccc2)[C@@H]2C(=O)N(C)C(=O)[C@@H]21	inactive: 1.6%	
COc1ccc(NC(=O)C(c2ccc(Cl)cc2)C(C)C)cn1 (stereo not drawn)	inactive: -1.05%	
O=[N+]([O-])c1nn(-c2ccc3c(c2)OCCO3)n(O)c1=Nc1ccc(Cl)cc1	inactive: 20.9%	
CC1CC(C)C(=O)C(C(CC2CC(=O)NC(=O)C2)OC(=O)CC(=O)c2ccccc2)C1 (stereo not drawn)	inactive: -10.7%	
CC(Nc1nc(N2CCN(CCO)CC2)nc2ccccc12)c1ccccc1 (stereo not drawn)	inactive: -23.6%	
COc1ccc(/C(O)=C2/C(=O)C(=O)N(CCCN3CCOCC3)C2c2ccc(N(C)C)cc2)cc1 (stereo not drawn)	inactive: 3.67%	
Cc1cc(=O)oc2cc(O)c(N=Nc3ccccc3)cc12	inactive: -10.3%	
Cc1ccc(CN=c2c([N+](=O)[O-])nn(-c3ccc4c(c3)OCCO4)n2O)cc1	inactive: 14%	
COc1ccc(Cn2ccnc2SCC(=O)NC2CCCC2)cc1	inactive: 4.25%	
O=C(c1ccc([N+](=O)[O-])o1)N1CCc2ccccc21	inactive: 7.1%	
CN(C(=O)c1cccc(NC(=O)Cc2ccc(NC(=O)C3CCN(C(=O)c4ccccc4)CC3)cc2)c1)C1CC1	inactive: 1.58%	
CC(=O)OCCSc1c(-c2ccccc2)c2cc(Cl)ccc2[nH]c1=O	inactive: 8.14%	
COc1cc(/C=C/c2ccc3cccc(OC)c3n2)c(O)c([N+](=O)[O-])c1	inactive: -0.206%	
O=C(NCC1CCN(Cc2ccccc2F)CC1)Nc1ccccc1F	inactive: 0.581%	
Cc1ccc2c(c1)c1nc3ccccc3nc1n2C	inactive: -4.9%	
CCS(=O)(=O)N1Cc2ccccc2CC1C(=O)Nc1ccccc1OC (stereo not drawn)	inactive: 13.5%	
Cc1ccc(Nc2cc(C)nc3c(C)ccc([N+](=O)[O-])c23)cc1	inactive: 10.4%	
O=C(Nc1ccc2oc(-c3ccncc3)nc2c1)c1ccc([N+](=O)[O-])o1		active: 16.5 µM
O=c1c([N+](=O)[O-])cc(C(F)(F)F)cn1Cc1cccc(Cl)c1	inactive: -7.8%	
O=C1c2ccc3c4c(ccc(c24)C(=O)N1CCCCO)C(=O)N(CCCCO)C3=O		active: 4.14 µM
CN(Cc1ccccc1)C(=O)c1ccc(NC(=O)Cc2cccc(NC(=O)C3CCN(C(=O)C4CC4)CC3)c2)cc1	inactive: -0.472%	
Cc1ccc(-c2c(C(=O)N/N=C/C3CC=CCC3)nnn2-c2nonc2N)cc1 (stereo not drawn)	inactive: 0.041%	

Compound	activity change, negative = cytotoxicity	Potency
COc1ccc(C(CNC(=O)c2oc3cc(Br)ccc3c2C)N2CCCCC2)cc1 (stereo not drawn)	inactive: -8.83%	
Cc1ccc([C@@H]2CC=C(C(=O)O)[C@H](c3cccc(Cl)c3)N2S(=O)(=O)c2ccc(C)cc2)cc1	inactive: 3.04%	
O=C(O)c1cccc(NC(=S)NC(NC(=O)c2ccccc2[N+](=O)[O-])C(Cl)(Cl)Cl)c1 (stereo not drawn)	inactive: 5.99%	
Cc1cnc([N+](=O)[O-])n1CCOC(=O)NC(=O)c1ccc(F)cc1	inactive: -4.24%	
CC(NC(=O)C12CC3CC(CC(C3)C1)C2)C(=O)NN=Cc1ccc([N+](=O)[O-])o1 (stereo not drawn)	inactive: -23.4%	
O=C(O)c1cc(Cl)c(Cl)cc1C(=O)N1CCCC1	inactive: 16.5%	
COc1cccc(CNCc2cccc(Br)c2)c1OC	inactive: -14.9%	
CC(C)C(=O)NC(=S)Nc1ccc(S(=O)(=O)N2CCCC2)cc1	inactive: 2.66%	
Cc1cc(C(=O)COc2cccnc2[N+](=O)[O-])c(C)n1-c1ccccc1F	inactive: 6.02%	
Cc1ncc([N+](=O)[O-])n1CCO		inactive
COc1ccc(NS(=O)(=O)c2ccc(S(=O)(=O)N(C)C)cc2)cc1S(N)(=O)=O	inactive: -5.52%	
COc1ccc(N(Cc2ccccc2)C(=O)OC(C)(C)C)c(C(=O)N(C)OC)c1	inactive: 1.61%	
COc1cc(/C=C2\COC/C(=C\c3cc(OC)c(OC)c(OC)c3)C2=O)cc(OC)c1OC		active: 2.33 µM
CCc1cc(=O)oc2cc(C)cc(OCC(=O)NC3CCN(Cc4ccccc4)CC3)c12	inactive: 4.04%	
COc1ccc(CNC(=O)COc2cccnc2[N+](=O)[O-])cc1OC	inactive: 6.39%	
O=C(NCc1ccco1)NC(=O)c1csc([N+](=O)[O-])c1	inactive: 10.6%	
Cc1cc(C(=O)CCC(=O)NC(C)c2ccc(S(N)(=O)=O)cc2)c(C)s1 (stereo not drawn)	inactive: 2.81%	
CCOC(=O)c1nc(C(=O)NCc2ccc(C)cc2)nc2ccccc12	inactive: 18.3%	
Cc1ccc(C(=O)c2c3ccc([N+](=O)[O-])cc3[n+]([O-])n2CCCC(N)=O)cc1	inactive: -12.8%	
CCn1cc(C(=O)NCCC(C)C)c(=O)c2cc(F)c(N3CCN(C(=O)c4ccco4)CC3)cc21	inactive: -29.2%	
O=[N+]([O-])c1ccc(-c2nc(C(Cl)Cl)c3ccccc3n2)cc1	inactive: 16.9%	
O=C(O)C1CCN(c2ccc([N+](=O)[O-])cc2[N+](=O)[O-])CC1	inactive: 14.6%	
CCCSc1nc2c(c(=O)n1CC)SC(C)C2 (stereo not drawn)	inactive: 1.45%	
